# Experimental data taken from the supplement of paper PMC8728848.
# The other results are listed elsewhere or left out.
# B1: CrataBL (Crataeva tapia), C0HJA4 (protein)
# chain: AILTGVPYYILPSTSRAGFSPDNLRKNTSQLSCPLDLITQLRFPRRIGVPVIFTPQNSSLKVVPLSHNLNIHTCSDLWFCPESKIWTVKSSLTHGGSVVTTGGTFRSLGSWFRIERHGDSYKLVHCPRGSTPCRDVGIETVGGGGRRYLAPRDRPLAVRFTRASG
# Columns and labels:
# Experiment in all cases: glycan array binding signal (z-score within array); higher = stronger binding
# Settings in all cases: glycan notation: IUPAC condensed, linker removed
# [1] = target: Fuc(a1-2)Gal(b1-4)GlcNAc(b1-3)Gal(b1-4)GlcNAc(b1-2)Man(a1-3)[Fuc(a1-2)Gal(b1-4)GlcNAc(b1-3)Gal(b1-4)GlcNAc(b1-2)Man(a1-6)]Man(b1-4)GlcNAc(b1-4)GlcNAc
# In short: (§1)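 Arrays were curated from the Consortium for Functional Glycomics database, 3228 in total, and kept only where the protein sequence was available. Binding is expressed as a within-array Z-score. This score was averaged across arrays of the same protein sequence at different concentrations or buffers and across linkers, and negative values can be read as non-binding.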
# [2] = target: Fuc(a1-2)Gal(b1-4)GlcNAc(b1-3)Gal(b1-4)GlcNAc(b1-3)Gal(b1-4)GlcNAc
# In short: as §1
# [3] = target: Fuc(a1-2)Gal(b1-4)GlcNAc(b1-3)GalNAc
# In short: as §1
# [4] = target: Fuc(a1-2)Gal(b1-4)GlcNAc(b1-3)[Fuc(a1-2)Gal(b1-4)GlcNAc(b1-6)]GalNAc
# In short: as §1
# [5] = target: Fuc(a1-2)Gal(b1-4)GlcNAc(b1-3)[Fuc(a1-3)[Gal(b1-4)]GlcNAc(b1-6)]Gal(b1-4)Glc
# In short: as §1
# [6] = target: Fuc(a1-2)Gal(b1-4)GlcNAc(b1-6)GalNAc
# In short: as §1
# [7] = target: Fuc(a1-2)Gal(b1-4)GlcNAc6S
# In short: as §1
# [8] = target: Fuc(a1-2)Gal(b1-4)[Fuc(a1-3)]GlcNAc
# In short: as §1
# [9] = target: Fuc(a1-2)Gal(b1-4)[Fuc(a1-3)]GlcNAc(b1-2)Man(a1-3)[Fuc(a1-2)Gal(b1-4)[Fuc(a1-3)]GlcNAc(b1-2)Man(a1-6)]Man(b1-4)GlcNAc(b1-4)[Fuc(a1-6)]GlcNAc
# In short: as §1
# [10] = target: Fuc(a1-2)Gal(b1-4)[Fuc(a1-3)]GlcNAc(b1-2)[Fuc(a1-2)Gal(b1-4)[Fuc(a1-3)]GlcNAc(b1-4)]Man(a1-3)[Fuc(a1-2)Gal(b1-4)[Fuc(a1-3)]GlcNAc(b1-2)Man(a1-6)]Man(b1-4)GlcNAc(b1-4)GlcNAc
# In short: as §1
# [11] = target: Fuc(a1-2)Gal(b1-4)[Fuc(a1-3)]GlcNAc(b1-3)Gal(b1-4)[Fuc(a1-3)]GlcNAc
# In short: as §1
# [12] = target: Fuc(a1-2)Gal(b1-4)[Fuc(a1-3)]GlcNAc(b1-3)Gal(b1-4)[Fuc(a1-3)]GlcNAc(b1-3)Gal(b1-4)[Fuc(a1-3)]GlcNAc
# In short: as §1
# [13] = target: Fuc(a1-2)Gal(b1-4)[Fuc(a1-3)]GlcNAc(b1-3)GalNAc
# In short: as §1
# [14] = target: Fuc(a1-2)Gal(b1-4)[Fuc(a1-3)]GlcNAc(b1-3)[Neu5Ac(a2-6)Gal(b1-4)GlcNAc(b1-6)]Gal(b1-4)Glc
# In short: as §1
# [15] = target: Fuc(a1-2)Gal3S(b1-4)GlcNAc
# In short: as §1
# [16] = target: Fuc(a1-2)Gal6S(b1-3)GlcNAc
# In short: as §1
# [17] = target: Fuc(a1-2)Gal6S(b1-3)GlcNAc6S
# In short: as §1
# [18] = target: Fuc(a1-2)Gal6S(b1-4)Glc
# In short: as §1
# [19] = target: Fuc(a1-2)Gal6S(b1-4)Glc6S
# In short: as §1
# [20] = target: Fuc(a1-2)[Gal(a1-3)]Gal
# In short: as §1
# [21] = target: Fuc(a1-2)[Gal(a1-3)]Gal(b1-3)GalNAc
# In short: as §1
# [22] = target: Fuc(a1-2)[Gal(a1-3)]Gal(b1-3)GalNAc(b1-3)Gal(a1-4)Gal(b1-4)Glc
# In short: as §1
# [23] = target: Fuc(a1-2)[Gal(a1-3)]Gal(b1-3)GlcNAc
# In short: as §1
# [24] = target: Fuc(a1-2)[Gal(a1-3)]Gal(b1-3)GlcNAc(b1-2)Man(a1-3)[Fuc(a1-2)[Gal(a1-3)]Gal(b1-3)GlcNAc(b1-2)Man(a1-6)]Man(b1-4)GlcNAc(b1-4)GlcNAc
# In short: as §1
# [25] = target: Fuc(a1-2)[Gal(a1-3)]Gal(b1-3)GlcNAc(b1-2)Man(a1-3)[Fuc(a1-2)[Gal(a1-3)]Gal(b1-3)GlcNAc(b1-2)Man(a1-6)]Man(b1-4)GlcNAc(b1-4)[Fuc(a1-6)]GlcNAc
# In short: as §1
# [26] = target: Fuc(a1-2)[Gal(a1-3)]Gal(b1-3)GlcNAc(b1-3)GalNAc
# In short: as §1
# [27] = target: Fuc(a1-2)[Gal(a1-3)]Gal(b1-3)GlcNAc(b1-6)GalNAc
# In short: as §1
# [28] = target: Fuc(a1-2)[Gal(a1-3)]Gal(b1-4)Glc
# In short: as §1
# [29] = target: Fuc(a1-2)[Gal(a1-3)]Gal(b1-4)GlcNAc
# In short: as §1
# [30] = target: Fuc(a1-2)[Gal(a1-3)]Gal(b1-4)GlcNAc(b1-2)Man
# In short: as §1
binder,measurement,setting,value
B1,glycan array binding signal (z-score),[1],-0.291
same,glycan array binding signal (z-score),[2],-0.524
same,glycan array binding signal (z-score),[3],-0.311
same,glycan array binding signal (z-score),[4],-0.345
same,glycan array binding signal (z-score),[5],-0.263
same,glycan array binding signal (z-score),[6],0.232
same,glycan array binding signal (z-score),[7],-0.334
same,glycan array binding signal (z-score),[8],-0.238
same,glycan array binding signal (z-score),[9],-0.206
same,glycan array binding signal (z-score),[10],-0.469
same,glycan array binding signal (z-score),[11],-0.232
same,glycan array binding signal (z-score),[12],-0.275
same,glycan array binding signal (z-score),[13],0.222
same,glycan array binding signal (z-score),[14],-0.412
same,glycan array binding signal (z-score),[15],-0.465
same,glycan array binding signal (z-score),[16],-0.412
same,glycan array binding signal (z-score),[17],5.81
same,glycan array binding signal (z-score),[18],0.184
same,glycan array binding signal (z-score),[19],0.194
same,glycan array binding signal (z-score),[20],-0.315
same,glycan array binding signal (z-score),[21],0.084
same,glycan array binding signal (z-score),[22],-0.222
same,glycan array binding signal (z-score),[23],-0.442
same,glycan array binding signal (z-score),[24],-0.5
same,glycan array binding signal (z-score),[25],-0.374
same,glycan array binding signal (z-score),[26],-0.481
same,glycan array binding signal (z-score),[27],-0.276
same,glycan array binding signal (z-score),[28],-0.296
same,glycan array binding signal (z-score),[29],-0.479
same,glycan array binding signal (z-score),[30],-0.355
